# From PubChem BioAssay (NCATS)
# Several values for one entry are separate records, joined by “and”; a condition that tells them apart may be missing. Identical values can stand only once. The shares of active, inactive and inconclusive entries below differ from those in the screen. Potencies beside an inconclusive call are fits to weak or partial responses and may not hold up. More than one record can exist for a structure, and the calls need not agree. Activity calls are given as the source filed them. Calls follow the shape of the dose curve; as a rule, active = well fitted inhibition curve with a large enough effect; inconclusive = small, poorly fitted or top-dose-only effect; inactive = flat fitted curve, though single readings scatter.
# Experiment: P-glycoprotein substrates identified in KB-8-5-11 adenocarcinoma cell line, qHTS therapeutic library screen (AID 1346987); also: nearly all actives have a fitted effect of over 65% in size
# Details: KB-8-5-11 (P-gp overexpressing) viability, CellTiter-Glo, 72 h; series mostly up to 44.5 µM
# Source text: The ATP-binding cassette transporters P-glycoprotein (P-gp) is known to limit brain penetration of many chemotherapy drugs. […] As such, we developed a high-throughput screen (HTS) to identify substrates of P-gp from a series of chemical libraries including the National Center for Advancing Translational Sciences Pharmaceutical Collection NPC, 2,816 compounds), testing a total of 10,804 compounds, most of which have known mechanisms of action. We used the CellTiter-Glo viability assay to test library compounds against the parental KB-3-1 human cervical adenocarcinoma cell line and the colchicine-selected sub-line KB-8-5-11 that over-expresses P-gp. KB-8-5-11 cells were also tested in the presence of a P-gp inhibitor (tariquidar) to assess reversability of transporter-mediated resistance. Of the tested compounds, a total of 90 P-gp substrates were identified including 55 newly identified P-gp substrates. Substrates were confirmed using an orthogonal killing assay against HEK-293 cells transfected with P-gp. As exemplars, we confirmed that […] (cyclin-dependent kinase inhibitor); AT9283, (Janus kinase 2/3 inhibitor); ispinesib (kinesin spindle protein inhibitor); gedatolisib (PKI-587, phosphoinositide 3-kinase/mammalian target of rampamycin inhibitor); GSK-690693 (AKT inhibitor); and KW-2478 (heat shock protein 90 inhibitor) were substrates , and direct ATPase stimulation was assessed. ABCG2 was also found to confer high levels of resistance to AT9283, GSK-690693 and gedatolisib, while ispinesib, AT7519 and KW-2478 were weaker substrates.
# The HeLa derivative cell line, KB-3-1, and its colchicine-selected, P-gp-overexpressing subline, KB-8-5-11 were maintained in DMEM with 10% FCS and Pen/Strep with glutamine at 37 degree C in 5% CO2. For KB-8-5-11 cells, colchicine was added to the medium at a concentration of 100 ng/mL. HEK-293 cells transfected with empty vector (pcDNA) or vector containing human ABCB1 (MDR-19) or ABCG2 (R-5) have been described previously (Robey, Lin, Qiu, Chan & Bates, 2011) and were maintained in EMEM supplemented with 10% FCS, Pen/Strep and glutamine with 2 mg/ml G418 to select for the expression of the transporter. Cultures were confirmed to be free of mycoplasma infection using the MycoAlert Mycoplasma Detection Kit (Lonza, Walkersville, MD). For the screen, assay medium was identical to culture medium except for KB-8-5-11 where colchicine was excluded from the medium.
# All cell lines were plated into 1536-well plates at 500 cells/well in 5 uL media. Compounds were then pinned in dose-response using a 1536-head pin tool (Kalypsis, San Diego, CA) and plates were incubated at 37 degree C in 5% CO2 for an additional 72 h. CellTiter-Glo reagent (Promega) was dispensed into the wells, incubated for 5 min and luminescence was read on a ViewLux instrument (Perkin-Elmer). Cytotoxic compounds were defined as those that yielded a curve class of -1.1, -1.2, -2.1, -2.2, -2.3, or -2.4, a maximum response of >50% and an AC50 of < 10 uM. Cherry-picked hits from screening analysis were tested with both the KB pair of cell lines, and the pcDNA (empty vector control) and MDR-19 (P-gp overexpressing) pair were tested, in the absence and presence of tariquidar.
# Potency is read from the fitted curve at half-maximal effect; tags tell the direction and shape of the fitted curve.
row,SMILES,Potency
1,COc1cc2ncnc(Nc3ccc(O)c(Br)c3)c2cc1OC,"inconclusive: 23.1 µM [inhibitor, partial curve, poor fit]"
2,COc1ccc2cc3c(NC(=O)c4ccco4)nn(C)c3nc2c1,"inconclusive: 8.2 µM [inhibitor, partial curve]"
3,Nc1nc(N)c(N=O)c(OCC2CCCCC2)n1,"inconclusive: 25.9 µM [inhibitor, single point] and inconclusive: 33.2 µM [inhibitor, single point]"
4,COc1ccc(-c2cnc3c(-c4cccc5ncccc45)cnn3c2)cc1,"inconclusive: 7.31 µM [inhibitor, partial curve]"
5,OC1C=C2C3CN(Cc4cc5c(cc43)OCO5)C2CC1O (stereo not given),active: 13 µM
6,C/C=C(\C)C(=O)O[C@H]1C=CC(=O)O[C@H]1/C=C/[C@@H](O)[C@H](C)O,"inconclusive: 29.1 µM [inhibitor, single point]"
7,CCOC(=O)[C@@](C)(N)Cc1ccc(O)c(O)c1,inactive
8,COc1cccc(CNC(=O)Nc2nc(-c3ccncc3)cs2)c1,"inconclusive: 8.2 µM [inhibitor, partial curve]"
9,Cc1cc(C(C#N)c2ccc(Cl)cc2)c(Cl)cc1NC(=O)c1cc(I)cc(I)c1O (stereo not given),active: 16.4 µM and inactive
10,OC(CNCCc1c[nH]c2ccccc12)Cn1c2ccccc2c2ccccc21 (stereo not given),active: 16.4 µM
11,CC(C)CCC[C@@H](C)[C@H]1CC[C@H]2[C@@H]3CC=C4C[C@@H](OC(=O)NCCN(C)C)CC[C@]4(C)[C@H]3CC[C@]12C,"inconclusive: 29.1 µM [inhibitor, single point]"
12,C#CC(=O)N(c1ccc(OC)cc1OC)C(C(=O)NCC(=O)OCC)c1cccs1 (stereo not given),"inconclusive: 29.1 µM [inhibitor, single point]"
13,COc1ccc2c(c1)C[C@H](C(=O)Nc1ccc(-c3cn[nH]c3)cc1OCCN(C)C)CO2,"inconclusive: 0.731 µM [inhibitor, full curve]"
14,CN1CCC(NC(=O)c2cc(-c3c(O)cc(O)cc3Oc3ccc([N+](=O)[O-])cc3)on2)CC1,active: 11.6 µM
15,CC(=O)O[C@H]1CC(C)(C)CC2[C@]13CO[C@@]21CCC2[C@@]4(C)CC[C@H](O[C@@H]5OC[C@H](O[C@@H]6O[C@H](CO)[C@@H](O)[C@H](O)[C@H]6O[C@@H]6OC[C@@H](O[C@@H]7O[C@H](CO)[C@@H](O)[C@H](O)[C@H]7O)[C@H](O)[C@H]6O)[C@H](O)[C@H]5O[C@@H]5O[C@H](CO)[C@@H](O)[C@H](O)[C@H]5O)[C@@](C)(CO)C4CC[C@@]2(C)[C@]1(C)C[C@H]3O (stereo not given in full),"inconclusive: 4.36 µM [inhibitor, single point]"
16,CCOC(=O)[C@@H](N)Cc1ccc(-c2cc(O[C@H](c3ccc(Cl)cc3-n3ccc(C)n3)C(F)(F)F)nc(N)n2)cc1,"inconclusive: 33.2 µM [inhibitor, single point]"
17,COc1cc2ncnc(Nc3ccc(F)c(Cl)c3)c2cc1O,"inconclusive: 29.1 µM [inhibitor, partial curve, poor fit]"
18,Cc1[nH]c(/C=C2\C(=O)Nc3cc(-c4ccccc4)ccc32)c(C)c1CCC(=O)O,"inconclusive: 29.1 µM [inhibitor, single point]"
19,COc1cc2nccc(Oc3ccc(NC(=O)NC4CC4)c(Cl)c3)c2cc1C(N)=O,"inconclusive: 23.1 µM [inhibitor, single point]"
20,C[C@@H]1O[C@@H](O[C@H]2[C@H](OC(=O)[C@]34CCC(C)(C)C[C@H]3C3=CCC5[C@@]6(C)C[C@H](O)[C@H](O[C@@H]7O[C@H](C(=O)O)[C@@H](O)[C@H](O)[C@H]7O)[C@@](C)(CO)C6[C@H](O)C[C@@]5(C)[C@]3(C)C[C@H]4O)O[C@@H](CO)[C@@H]2O)[C@H](O)[C@H](O)[C@H]1O[C@@H]1OC[C@@H](O)[C@H](O[C@H]2OC[C@](O)(CO)[C@H]2O)[C@H]1O (stereo not given in full),"inconclusive: 6.16 µM [inhibitor, partial curve, poor fit]"

row,SMILES,Potency
1,COc1ccc2c(c1)CN(C(=O)CCN1CCC(Cc3ccccc3)CC1)CCS2,active: 6.32 µM
2,CCOC(=O)c1cnn(-c2ccc(NC(=O)C(Cl)=C(Cl)Cl)cc2)c1C(F)(F)F,"inconclusive: 29.1 µM [inhibitor, single point]"
3,O=C(Nc1ccc(C(F)(F)F)cn1)N1CCN(c2ncccc2C(F)(F)F)CC1,"inconclusive: 18.4 µM [inhibitor, single point]"
4,C=C1C(=O)OC2/C=C(\C)CC/C=C(\C=O)C(OC)C(OC(=O)C(C)CC)C12 (stereo not given),"inconclusive: 20.2 µM [inhibitor, single point]"
5,NC(=O)[C@H]1CCS[C@@H]2C[C@]3(CCCN3C(=O)Cc3ccc(NC(=O)COc4ccc(Cl)cc4Cl)cc3)C(=O)N12,active: 20.6 µM
6,C=C(NC(=O)C(=C)NC(=O)c1csc(C2=NC3c4csc(n4)C4NC(=O)c5csc(n5)C(C(C)(O)C(C)O)NC(=O)C5CSC(=N5)/C(=C/C)NC(=O)C(C(C)O)NC(=O)c5csc(n5)C3(CC2)NC(=O)C(C)NC(=O)C(=C)NC(=O)C(C)NC(=O)C(C(C)CC)NC2C=Cc3c(C(C)O)cc(nc3C2O)C(=O)OC4C)n1)C(N)=O (stereo not given),inactive
7,NC(=O)c1nc(Nc2ccccc2)sc1NC(=O)C1CCCCC1,"inconclusive: 20.6 µM [inhibitor, single point]"
8,COc1ccc(F)c(F)c1C(=O)c1cnc(NC2CCN(S(C)(=O)=O)CC2)nc1N,active: 3.72 µM and active: 4.11 µM
9,OC(c1ccc(-c2ccc(CN3CCN(Cc4ccncc4)CC3)cc2)c(F)c1)(C(F)(F)F)C(F)(F)F,"inconclusive: 14.6 µM [inhibitor, partial curve]"
10,Fc1ccc2[nH]ccc2c1-c1nc(N2CCOCC2)c2sc(CN3CCN(CC4CC4)CC3)cc2n1,active: 20.6 µM
11,COc1cc(C)c(Sc2cnc(NC(=O)c3ccc(CNC(C)C(C)(C)C)cc3)s2)cc1C(=O)N1CCN(C(C)=O)CC1 (stereo not given),"inconclusive: 33.2 µM [inhibitor, single point]"
12,CC(=O)ON=C1C(c2c(O)[nH]c3cc(Br)ccc23)=Nc2ccccc21,"inconclusive: 26.4 µM [inhibitor, single point]"
13,CCc1cc(Cl)c(OC)c(C(=O)NC[C@@H]2CCCN2CC)c1O,"inconclusive: 20.6 µM [inhibitor, single point] and inconclusive: 23.1 µM [inhibitor, single point]"
14,C=CCc1ccc(OC(C)Cc2ccc(OC)c(OC)c2)c(OC)c1 (stereo not given),"inconclusive: 20.2 µM [inhibitor, single point]"
15,CC[C@H](Nc1ncnc2nc[nH]c12)c1nc2cccc(F)c2c(=O)n1-c1ccccc1,"inconclusive: 13.2 µM [inhibitor, partial curve]"
16,COc1ccccc1-c1c[nH]c2ncc(-c3cncc(C(=O)N(C)C)c3)cc12,"inconclusive: 29.1 µM [inhibitor, single point]"
17,Cc1ccc(N2CCN(S(=O)(=O)N3CCCCC3)CC2)c(C)c1,"inconclusive: 18.4 µM [inhibitor, single point]"
18,CCOc1cc2ncc(C#N)c(Nc3ccc(OCc4ccccn4)c(Cl)c3)c2cc1NC(=O)/C=C/CN(C)C,"inconclusive: 7.96 µM [inhibitor, partial curve]"
19,O=C(NC(NC(=S)Nc1ccc(F)c([N+](=O)[O-])c1)C(Cl)(Cl)Cl)C(c1ccccc1)c1ccccc1 (stereo not given),"inconclusive: 5.44 µM [inhibitor, single point] and inconclusive: 29.1 µM [inhibitor, single point]"
20,Cc1ccnn1-c1ccc(C(=O)N2CCN(S(=O)(=O)c3ccc(Cl)c(C(F)(F)F)c3)CC2)cc1,"inconclusive: 9.2 µM [inhibitor, partial curve]"
